Where a chain is given by its changes, count along the chain named. Some of the results follow.
T1: RBFOX1 RRM (Homo sapiens, UniProt Q9NWB1 109-208)
T1 sequence: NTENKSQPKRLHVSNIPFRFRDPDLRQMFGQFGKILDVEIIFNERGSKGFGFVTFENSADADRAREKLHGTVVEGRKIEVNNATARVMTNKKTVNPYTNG

B1: UCAAAAA (DNA:RNA)
RNA: GGGAGACCGGAAUUCAGAUUGUCCUCAAAAAUUAAAUCCCGUCGUAGCCACCA
DNA 1: CAATCTGAATTCCGGTCTCCC
DNA 2: TGGTGGCTACGACGGGATT
B2: UGCUGCC (DNA:RNA)
RNA: B1 RNA with C26G, A27C, A28U, A29G, A30C, A31C
DNA 1: CAATCTGAATTCCGGTCTCCC
DNA 2: TGGTGGCTACGACGGGATT
B3: GUCAGAG (DNA:RNA)
RNA: B1 RNA with U25G, C26U, A27C, A29G, A31G
DNA 1: CAATCTGAATTCCGGTCTCCC
DNA 2: TGGTGGCTACGACGGGATT
B4: CCUAACC (DNA:RNA)
RNA: B1 RNA with U25C, A27U, A30C, A31C
DNA 1: CAATCTGAATTCCGGTCTCCC
DNA 2: TGGTGGCTACGACGGGATT
B5: GGCUCAG (DNA:RNA)
RNA: B1 RNA with U25G, C26G, A27C, A28U, A29C, A31G
DNA 1: CAATCTGAATTCCGGTCTCCC
DNA 2: TGGTGGCTACGACGGGATT
B6: ACCCUGA (DNA:RNA)
RNA: B1 RNA with U25A, A27C, A28C, A29U, A30G
DNA 1: CAATCTGAATTCCGGTCTCCC
DNA 2: TGGTGGCTACGACGGGATT
B7: UCGGUUU (DNA:RNA)
RNA: B1 RNA with A27G, A28G, A29U, A30U, A31U
DNA 1: CAATCTGAATTCCGGTCTCCC
DNA 2: TGGTGGCTACGACGGGATT
B8: GACUAUU (DNA:RNA)
RNA: B1 RNA with U25G, C26A, A27C, A28U, A30U, A31U
DNA 1: CAATCTGAATTCCGGTCTCCC
DNA 2: TGGTGGCTACGACGGGATT
B9: UCUUUUG (DNA:RNA)
RNA: B1 RNA with A27U, A28U, A29U, A30U, A31G
DNA 1: CAATCTGAATTCCGGTCTCCC
DNA 2: TGGTGGCTACGACGGGATT
B10: CGAUCCG (DNA:RNA)
RNA: B1 RNA with U25C, C26G, A28U, A29C, A30C, A31G
DNA 1: CAATCTGAATTCCGGTCTCCC
DNA 2: TGGTGGCTACGACGGGATT
B11: UGAAUCC (DNA:RNA)
RNA: B1 RNA with C26G, A29U, A30C, A31C
DNA 1: CAATCTGAATTCCGGTCTCCC
DNA 2: TGGTGGCTACGACGGGATT
B12: AGCCUGU (DNA:RNA)
RNA: GGGAGACCGGAAUUCAGAUUGUCCAGCCUGUUUAAAUCCCGUCGUAGCCACCA
DNA 1: CAATCTGAATTCCGGTCTCCC
DNA 2: TGGTGGCTACGACGGGATT
B13: GUCCGCG (DNA:RNA)
RNA: B12 RNA with A25G, G26U, U29G, G30C, U31G
DNA 1: CAATCTGAATTCCGGTCTCCC
DNA 2: TGGTGGCTACGACGGGATT
B14: ACAAUGG (DNA:RNA)
RNA: B12 RNA with G26C, C27A, C28A, U31G
DNA 1: CAATCTGAATTCCGGTCTCCC
DNA 2: TGGTGGCTACGACGGGATT
B15: AUCCACC (DNA:RNA)
RNA: B12 RNA with G26U, U29A, G30C, U31C
DNA 1: CAATCTGAATTCCGGTCTCCC
DNA 2: TGGTGGCTACGACGGGATT
B16: UCGCACG (DNA:RNA)
RNA: B1 RNA with A27G, A28C, A30C, A31G
DNA 1: CAATCTGAATTCCGGTCTCCC
DNA 2: TGGTGGCTACGACGGGATT
B17: GAACUAA (DNA:RNA)
RNA: B1 RNA with U25G, C26A, A28C, A29U
DNA 1: CAATCTGAATTCCGGTCTCCC
DNA 2: TGGTGGCTACGACGGGATT
B18: CGACUUC (DNA:RNA)
RNA: B12 RNA with A25C, C27A, G30U, U31C
DNA 1: CAATCTGAATTCCGGTCTCCC
DNA 2: TGGTGGCTACGACGGGATT
B19: AGAAACG (DNA:RNA)
RNA: B1 RNA with U25A, C26G, A30C, A31G
DNA 1: CAATCTGAATTCCGGTCTCCC
DNA 2: TGGTGGCTACGACGGGATT
B20: ACUUGCU (DNA:RNA)
RNA: B12 RNA with G26C, C27U, C28U, U29G, G30C
DNA 1: CAATCTGAATTCCGGTCTCCC
DNA 2: TGGTGGCTACGACGGGATT

Each binder was assayed against T1, RBFOX1 RRM (assay: EMSA; HiTS-Eq, 1 nM pool, 10 min; buffer printed only for the single-RNA assays: 10 mM Tris pH 7.5, 150 mM NaCl, 3.4 mM EDTA, 0.001% NP-40, 30 C). Conditions: tags: His6 N-terminal (pET28a); label: 5' 32P.
In short: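 A pool of RNA with 7 randomized nucleotides, 5′-radiolabelled and with DNA-annealed flanks, was equilibrated at 1 nM for 10 min in 50 µL with purified RbFox RRM, wild type or mutant, across increasing protein concentrations. Free RNA was separated by 8% native PAGE, excised, reverse-transcribed, barcoded by PCR and sequenced. Relative association constants were obtained from read-count changes of each RNA species versus the control reaction and normalised to the cognate motif.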

Row | Binder | binding signal
1 | B1 | 0.00186 KA relative to UGCAUGU
2 | B2 | 0.0265 KA relative to UGCAUGU
3 | B3 | 0.0183 KA relative to UGCAUGU
4 | B4 | 0.00241 KA relative to UGCAUGU
5 | B5 | 0.0135 KA relative to UGCAUGU
6 | B6 | 0.00529 KA relative to UGCAUGU
7 | B7 | 0.0186 KA relative to UGCAUGU
8 | B8 | 0.00334 KA relative to UGCAUGU
9 | B9 | 0.0224 KA relative to UGCAUGU
10 | B10 | 0.0101 KA relative to UGCAUGU
11 | B11 | 0.0114 KA relative to UGCAUGU
12 | B12 | 0.0167 KA relative to UGCAUGU
13 | B13 | 0.014 KA relative to UGCAUGU
14 | B14 | 0.00776 KA relative to UGCAUGU
15 | B15 | 0.000451 KA relative to UGCAUGU
16 | B16 | 0.0586 KA relative to UGCAUGU
17 | B17 | 0.00238 KA relative to UGCAUGU
18 | B18 | 0.01 KA relative to UGCAUGU
19 | B19 | 0.0036 KA relative to UGCAUGU
20 | B20 | 0.00904 KA relative to UGCAUGU
